Measured values from PubChem BioAssay (NCI).
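Values below derive from 48-hour exposures of cells grown in 96-well plates, with endpoints linearly interpolated between the two concentrations bracketing the appropriate inhibition level. The concentration for 50% growth inhibition is given as GI50.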 The source holds more than one record for some entries. The other results are left out here. The source may hold further records. The values listed for one entry repeat one measurement in other runs, samples, wells, individuals or studies. A tag in brackets gives the origin of a value. Letters hold for one entry only.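 TGI: total growth inhibition.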 *1 amine or outer side, *2 acyl side, *3 side chain or, on linkers, in order; H or OH if unused. Where a SMILES comes first, the peptide text is derived from it. Bridges are numbered along the chain shown (N, C = ends). Roman numbers before positions name the chains, in order. [ ]: non-standard residue; d: D form. Actinocin(1to9) = Cc1c2oc3c(C)ccc(C(=O)[*:2])c3nc-2c(C(=O)[*:1])c(N)c1=O; NMeY = CN[CH](Cc1ccc(O)cc1)C(=O)O; Sar = CNCC(=O)O

Key:
Assay in all cases: NCI tumour cell line growth inhibition, 48 h
HOP-92 NSCLC = test system: HOP-92 NSCLC
M14 melanoma = test system: M14 melanoma
HCC-2998 colon = test system: HCC-2998 colon
HOP-62 NSCLC = test system: HOP-62 NSCLC
NCI-H23 lung = test system: NCI-H23 lung
HCT-15 colon = test system: HCT-15 colon
TK-10 renal = test system: TK-10 renal
HT29 colon = test system: HT29 colon
RXF 393 renal = test system: RXF 393 renal
DU-145 prostate = test system: DU-145 prostate
SF-268 CNS = test system: SF-268 CNS
MDA-MB-435 = test system: MDA-MB-435
SK-OV-3 ovarian = test system: SK-OV-3 ovarian
A498 renal = test system: A498 renal
OVCAR-8 ovarian = test system: OVCAR-8 ovarian
SF-539 CNS = test system: SF-539 CNS
T-47D breast = test system: T-47D breast
UACC-257 melanoma = test system: UACC-257 melanoma
UACC-62 melanoma = test system: UACC-62 melanoma
OVCAR-3 ovarian = test system: OVCAR-3 ovarian
SK-MEL-5 melanoma = test system: SK-MEL-5 melanoma
UO-31 renal = test system: UO-31 renal
MDA-MB-231 breast = test system: MDA-MB-231 breast
SK-MEL-2 melanoma = test system: SK-MEL-2 melanoma
SK-MEL-28 melanoma = test system: SK-MEL-28 melanoma
KM12 colon = test system: KM12 colon
PC-3 prostate = test system: PC-3 prostate
IGROV1 ovarian = test system: IGROV1 ovarian
LOX IMVI melanoma = test system: LOX IMVI melanoma
SW-620 colon = test system: SW-620 colon
MALME-3M melanoma = test system: MALME-3M melanoma
OVCAR-4 ovarian = test system: OVCAR-4 ovarian
EKVX NSCLC = test system: EKVX NSCLC
OVCAR-5 ovarian = test system: OVCAR-5 ovarian
NCI-H522 lung = test system: NCI-H522 lung

In the case of `COc1ccc(CC2C(=O)OC(C)C(NC(=O)c3c4nc5c(C(=O)NC6C(=O)NC(C(C)C)C(=O)N7CCCC7C(=O)N(C)CC(=O)N(C)C(Cc7ccc(OC)cc7)C(=O)OC6C)ccc(C)c5oc-4c(C)c(=O)c3N)C(=O)NC(C(C)C)C(=O)N3CCCC3C(=O)N(C)CC(=O)N2C)cc1` (stereo not drawn) (I: TVP[Sar][NMeY](Me) / II: TVP[Sar][NMeY](Me); ester I:1-I:C, II:1-II:C; linker I:N-II:N via Actinocin(1to9); configuration not given here), the TGI (HOP-92 NSCLC) is reported as 33 nM [sample A, mean of 2 tests] and 480 nM [sample B, mean of 2 tests], the TGI (M14 melanoma) is reported as < 10 nM [sample A, 1 test] and 210 nM [sample B, mean of 2 tests] and the TGI (HCC-2998 colon) is reported as 10.4 nM [sample A] and 218 nM [sample B]. The TGI (HOP-62 NSCLC) was < 10 nM [sample A] and 195 nM [sample B], the TGI (NCI-H23 lung) was < 10 nM [sample A] and 143 nM [sample B] and the GI50 (HCT-15 colon) was < 10 nM [sample A, 1 test] and 175 nM [sample B, 1 test]. For the same compound, the GI50 (TK-10 renal) was < 10 nM [sample A, 1 test] and 130 nM [sample B, mean of 2 tests], the TGI (HT29 colon) was 10.6 µM [sample A, 1 test] and 215 nM [sample B, mean of 2 tests] and the TGI (RXF 393 renal) was < 10 nM [sample A, 1 test] and 143 nM [sample B, mean of 2 tests]. The TGI (DU-145 prostate) was < 10 nM [sample A] and > 1 µM [sample B], the TGI (SF-268 CNS) was < 10 nM [sample A, 1 test] and > 493 nM [sample B, mean of 2 tests] and the TGI (MDA-MB-435) was < 10 nM [sample A] and 201 nM [sample B]. For the same compound, the TGI (SK-OV-3 ovarian) was < 10 nM [sample A, 1 test] and 983 nM [sample B, mean of 2 tests], the TGI (A498 renal) was < 10 nM [sample A] and 188 nM [sample B] and the TGI (OVCAR-8 ovarian) was 19.1 nM [sample A] and 332 nM [sample B]. The TGI (SF-539 CNS) was < 10 nM [sample A] and 284 nM [sample B], the TGI (T-47D breast) was < 10 nM [sample A] and > 291 nM [sample B] and the TGI (UACC-257 melanoma) was < 10 nM [sample A] and 484 nM [sample B]. For the same compound, the TGI (UACC-62 melanoma) was < 10 nM [sample A] and 112 nM [sample B], the TGI (OVCAR-3 ovarian) was < 10 nM [sample A] and 226 nM [sample B] and the TGI (SK-MEL-5 melanoma) was < 10 nM [sample A] and > 445 nM [sample B]. The GI50 (UO-31 renal) was < 10 nM [sample A, mean of 2 tests] and 147 nM [sample B, mean of 2 tests], the TGI (UO-31 renal) was 21.3 nM [sample A, mean of 2 tests] and 684 nM [sample B, mean of 2 tests] and the GI50 (MDA-MB-231 breast) was < 10 nM [sample A, mean of 2 tests] and 178 nM [sample B, mean of 2 tests]. The TGI (MDA-MB-231 breast) was < 15 nM [sample A, mean of 2 tests] and > 722 nM [sample B, mean of 2 tests], the TGI (SK-MEL-2 melanoma) was < 10 nM [sample A, 1 test] and 165 nM [sample B, mean of 2 tests] and the TGI (SK-MEL-28 melanoma) was < 10 nM [sample A] and 190 nM [sample B]. For the same compound, the TGI (KM12 colon) was < 10 nM [sample A] and 222 nM [sample B], the TGI (PC-3 prostate) was 23.9 nM [sample A] and 245 nM [sample B] and the TGI (IGROV1 ovarian) was < 10 nM [sample A, 1 test] and > 577 nM [sample B, mean of 2 tests]. The TGI (LOX IMVI melanoma) was < 10 nM [sample A, 1 test] and > 1 µM [sample B, 1 test], the TGI (SW-620 colon) was < 10 nM [sample A] and > 1 µM [sample B] and the TGI (MALME-3M melanoma) was < 10 nM [sample A] and 197 nM [sample B].
In the case of `CCC1=C(CC2NCCc3ccccc32)CC2c3cc(OC)c(OC)cc3CCN2C1` (stereo not drawn), the TGI (OVCAR-4 ovarian) is reported as 19.6 µM [sample A] and 835 nM [sample B], the TGI (EKVX NSCLC) is reported as 35.2 µM [sample A] and 1.12 µM [sample B] and the TGI (OVCAR-5 ovarian) is reported as 80.5 µM [sample A] and 2.32 µM [sample B]. For the same compound, the TGI (NCI-H522 lung) was 15.7 µM [sample A] and 1.12 µM [sample B] and the TGI (PC-3 prostate) was 19.2 µM [sample A] and 1.6 µM [sample B].
